# In PubChem BioAssay AID463173 (ICCB-Longwood Screening Facility, Harvard Medical School, 2010):
# The whole screen tested about 52,000 compounds, of which about 1,700 (3.3%) were called active. Rule as the data show it: active = survival mostly below about 52% (no sharp cut-off); inactive = mostly above about 56%. This is one part of the list.
# Test system: Wild type
# Assay: growth inhibition of S. aureus wild type versus tarO mutant, primary screen, teichoic acid synthesis inhibitors, RN4220, OD600 (AID 463173)
# Details: S. aureus RN4220 wild type/DeltatarO growth, OD600, 18 h, active compounds read low; concentration not given here unless noted
row,SMILES,survival
1,CCC12CN3CC(CC)(CN(C1)C3c1c(C)[nH]c(=O)[nH]c1=O)C2=O (stereo not given),inactive: 88%
2,O=C(O)c1cncc(O)c1,inactive: 105%
3,O=c1c2ccccc2nc(/C=C/c2cccc3ccccc23)n1-c1ccc(Cl)cc1,inactive: 80%
4,CC(C(=O)c1ccc2ccccc2c1)N1CCCCC1 (stereo not given),inactive: 107%
5,COc1ccc(OCC(=O)N2CCN(CCc3ccncc3)CC2)cc1,inactive: 89%
6,O=C(O)CCC1C(=O)NC(=O)NC1=O,inactive: 112%
7,Cc1ccccc1-n1c(/C=C/c2c(C)[nH]c3ccccc23)nc2ccccc2c1=O,active: 6%
8,Cc1ccccc1-n1nc(C)c2c1NC(=O)CSC2c1ccc(Cl)cc1 (stereo not given),inactive: 44%
9,CNC(=O)Oc1c(Br)cc2sc(=O)oc2c1Br,inactive: 112%
10,CN1CCCSC1=Nc1ccccc1F,inactive: 110%
11,Cc1ccc(Cn2cccc(C(=O)Nc3cc(C)on3)c2=O)cc1,inactive: 81%
12,Cc1c(C(c2ccc(Br)cc2)c2c(O)c3ccccc3oc2=O)c(=O)n(-c2ccccc2)n1C (stereo not given),inactive: 69%
13,O=C(Cn1cc(C(=O)c2ccccc2)c2ccccc21)NCc1ccco1,inactive: 104%
14,Cc1cccc(-n2c(-c3ccco3)nc3ccccc3c2=O)c1,inactive: 96%
15,CN(C)c1ccc(NC(=O)c2sc3nc4c(cc3c2N)N2CCC4CC2)cc1,inactive: 114%
16,COc1ccc(Cc2c(O)[nH]c(=S)[nH]c2=O)cc1,inactive: 116%
17,Cn1c(O)c(C=NCCN2CCN(C(=O)c3ccccc3)CC2)c(=O)n(C)c1=O,inactive: 110%
18,CCNCC1(c2ccc(OC)c(OC)c2)CCCC1,inactive: 112%
19,CCCC12CN3CC(C)(CN(C1)C3c1c(C)[nH]c(=O)[nH]c1=O)C2=O (stereo not given),inactive: 92%
20,O=C(COc1ccccc1)N1CCN(CC(O)COc2ccccc2)CC1 (stereo not given),inactive: 111%
21,CCCC1=Nc2cc(C(=O)NCCCN(CC)CC)ccc2Sc2ccccc21,inactive: 116%
22,COc1ccc(Br)cc1C1SCC(=O)Nc2c1c(C)nn2-c1ccccc1C (stereo not given),inactive: 68%
23,Cc1ccc(-c2nn3c(=O)cc(CN4CCN(C(=O)COc5ccc(C)c(C)c5)CC4)nc3s2)cc1,inactive: 71%
24,CN1CCN(Cc2cn3ccccc3n2)CC1,inactive: 119%
25,CCCC1(CCC)C(=O)NC(=Nc2ccccc2)NC1=O,inactive: 107%

row,SMILES,survival
1,Cc1ccc(-c2nc(CN3C(=O)CN=C(c4ccccc4)c4ccccc43)c(C)o2)cc1,inactive: 72%
2,CCN(CC)C(=O)c1ccc(NC(=O)c2ccc(-c3nn(C)c(=O)c4ccccc34)cc2)cc1,inactive: 66%
3,Cc1ccc(Cn2cccc(C(=O)Nc3ccc4c(c3)OCCO4)c2=O)cc1,inactive: 72%
4,COC(=O)C1=C(C)OC(N)=C(C#N)C12C(=O)Nc1ccc(C)cc12 (stereo not given),inactive: 96%
5,COc1ccccc1C1SCC(=O)Nc2c1c(C)nn2-c1cccc(C)c1 (stereo not given),active: -10%
6,COc1cccc(NC(=O)c2cccn(Cc3ccccc3C)c2=O)c1,inactive: 77%
7,OC1(c2cccnc2)CCNCC1,inactive: 112%
8,CCC(C)N1CCN(Cc2ccccc2)CC1 (stereo not given),inactive: 111%
9,CCCCC12CN3CC(C)(CN(C1)C3c1ccccn1)C2=O (stereo not given),inactive: 87%
10,Cc1cccc(-n2nc(C)c3c2NC(=O)CSC3c2ccccc2Cl)c1 (stereo not given),inactive: 64%
11,CCOc1ccc(CN(CCc2ccc3c(c2)OCO3)Cc2ccc(C)cc2)cc1,inactive: 35%
12,CC(C)Cc1nc2cccnc2n1C1CCNCC1,inactive: 129%
13,Cc1ccc(NC(=O)Cn2cc(C(=O)c3ccccc3)c3ccccc32)c(C)c1,inactive: 81%
14,COc1ccc(-n2c(/C=C/c3cccc(F)c3)nc3ccccc3c2=O)cc1Cl,inactive: 80%
15,Cc1cccc(CN2C(=O)CN=C(c3ccccc3)c3ccccc32)c1,inactive: 73%
16,CCOC(=O)c1[nH]c(C)c(C=C(C#N)C#N)c1C,inactive: 101%
17,COc1cccc(C2SCC(=O)Nc3c2c(C)nn3-c2ccc(C)c(Cl)c2)c1OC (stereo not given),inactive: 96%
18,O=c1c2ccccc2nc(/C=C/c2ccccc2F)n1-c1cccc(O)c1,active: 11%
19,CCc1nc(SC)ncc1C(=O)Nc1ccc(Cl)cc1C(=O)c1ccccc1,inactive: 73%
20,Cc1cccc(-c2nn3c(=O)cc(CN4CCN(C(=O)COc5ccc(Cl)cc5)CC4)nc3s2)c1,inactive: 153%
21,Cc1cccc(CN2CCN(C(=O)COc3ccccc3)CC2)c1,inactive: 108%
22,CCn1cc(C=C(C#N)C#N)c2ccccc21,inactive: 104%
23,C=C1N2CCC(CC2)C1(O)c1ccc(C)cc1 (stereo not given),inactive: 98%
24,COc1ccc(NC(=O)CCc2nc(C3=CCN(Cc4cccc(Cl)c4)CC3)no2)c(OC)c1,inactive: 127%
25,O=S1(=O)N(Cc2ccccc2Cl)CCCN1Cc1ccccc1Cl,active: -4%

row,SMILES,survival
1,O=C(Nc1ccc2c(c1)OCO2)c1cccn(Cc2cccc([N+](=O)[O-])c2)c1=O,inactive: 77%
2,CN1CCN(C(=O)COc2cccc3ccccc23)CC1,inactive: 107%
3,Cc1ccccc1OCC(=O)N1CCN(CCc2ccccn2)CC1,inactive: 83%
4,O=C1/C(=C\c2cc3c(cc2Cl)OCO3)N2CCC1CC2,inactive: 110%
5,COc1ccc(OCC(=O)N2CCN(Cc3cc(=O)n4nc(-c5ccc(OC)cc5)sc4n3)CC2)cc1,inactive: 138%
6,COc1ccc(CC2C(=O)NC(=O)N(c3ccccc3)C2=O)c(OC)c1 (stereo not given),inactive: 114%
7,Cc1cccc(Cn2cccc(C(=O)Nc3ccc(F)cc3F)c2=O)c1,inactive: 73%
8,Cc1ccc(OCC(=O)N2CCN(CCc3ccncc3)CC2)cc1,inactive: 85%
9,CC(C)c1ccc(OCC(=O)N2CCN(CCc3ccccn3)CC2)cc1,inactive: 79%
10,COc1ccc(OCC(=O)N2CCN(Cc3ccc(SC)cc3)CC2)cc1,inactive: 127%
11,COc1ccccc1CN1CCN(Cc2ccccc2OC)CC1,inactive: 103%
12,Cc1ccccc1-n1c(/C=C/c2ccc(N(C)C)cc2)nc2ccccc2c1=O,active: 7%
13,O=C(c1ccc2c(c1)N(Cc1ccc(F)cc1)C(=O)c1ccccc1S2)N1CCC2(CC1)OCCO2,inactive: 69%
14,CC(C)NC(C)C(=O)c1ccc2ccccc2c1 (stereo not given),inactive: 109%
15,CN1C(=C2C(=O)NC(=O)NC2=O)Sc2ccccc21,inactive: 106%
16,Cc1nnc(NC(=O)c2cccn(Cc3cccc(F)c3)c2=O)s1,inactive: 71%
17,Cc1ccc(OCC(=O)Nc2ccc(Cl)cc2C(=O)c2ccccc2)cc1C,inactive: 75%
18,COc1ccc(CN2CCN(Cc3ccccc3)CC2)cc1,inactive: 105%
19,CCN(CC)c1ccc2c3c(c(=O)oc2c1)C(c1cc2c(C)cc(C)cc2[nH]c1=O)C(C#N)=C(N)O3 (stereo not given),inactive: 81%
20,COc1cccc(-c2nn3c(=O)cc(CN4CCN(C(=O)COc5ccccc5C)CC4)nc3s2)c1,inactive: 74%
21,CCOc1ccc2nc(NC(=O)c3cccn(Cc4ccccc4Cl)c3=O)sc2c1,inactive: 68%
22,CCOc1ccc(CN(CCc2ccc3c(c2)OCO3)Cc2ccc(OC)c(Br)c2)cc1,inactive: 67%
23,C[N+]12CN3CN(CN(C3)C1)C2,inactive: 112%
24,Cn1c(O)c(C=Nc2ccccc2)c(=O)n(C)c1=O,inactive: 99%
25,Nc1c2c(nc3sc4c(c13)CCCC4)CCCC2,inactive: 118%

row,SMILES,survival
1,Cc1ccccc1CN1C(=O)C(C)N=C(c2ccccc2)c2ccccc21 (stereo not given),inactive: 68%
2,CCc1ccc(OCC(=O)N2CCN(CCc3ccncc3)CC2)cc1,inactive: 107%
3,Cn1cccc1CNCCc1ccccc1,inactive: 110%
4,Cc1cccc2cc(C=C(C#N)C#N)c(Cl)nc12,inactive: 93%
5,Cc1ccc(C(C)C)c(OCC(=O)N2CCN(CCc3ccncc3)CC2)c1,inactive: 76%
6,CCOc1ccc(CN(CCc2ccc3c(c2)OCO3)Cc2cc(OC)ccc2O)cc1,inactive: 55%
7,O=C1NC(=O)C(CCc2ccncc2)(CCc2ccncc2)C(=O)N1C1CCCCC1,inactive: 96%
8,Cc1ccc(NC(=O)N(Cc2ccc3c(c2)OCO3)C2CCN(Cc3ccccc3)CC2)cc1C,active: -1%
9,Cc1cc(OCC(=O)N2CCN(CCc3ccncc3)CC2)ccc1Cl,inactive: 85%
10,CSc1ccc(/C=C/c2nc3ccccc3c(=O)n2-c2cccc(Cl)c2C)cc1,inactive: 74%
11,N#Cc1cc2c(nc1SCC(=O)Nc1ccc(C(F)(F)F)cc1)C1CCN2CC1,active: 0%
12,COc1ccc(-n2c(/C=C\c3ccccc3F)nc3ccccc3c2=O)c(OC)c1,inactive: 68%
13,CC(C)c1ccc(OCC(=O)N2CCN(CCc3ccncc3)CC2)cc1,inactive: 81%
14,CCN1CCN(Cc2ccccc2C#N)CC1,inactive: 106%
15,CCc1cccc(NC(=O)CN2C(=O)CN=C(c3ccccc3F)c3cc(Cl)ccc32)c1,inactive: 83%
16,COc1ccc(OC)c(C(c2c(O)c3ccccc3oc2=O)c2c(C)n(C)n(-c3ccccc3)c2=O)c1 (stereo not given),inactive: 64%
17,Cc1ccc2c(c1)C1CN(C)CCC1N2 (stereo not given),inactive: 118%
18,O=c1c2ccccc2nc(-c2ccco2)n1-c1ccc(Cl)cc1,inactive: 112%
19,CCCCn1c(C)c(C(=O)OCC)c2cc(OC)ccc21,inactive: 110%
20,O=C1CCCN1C(=O)c1cc(Cl)cc(Cl)c1,inactive: 119%
21,Cc1cccc(Cn2cccc(C(=O)Nc3cc(C)on3)c2=O)c1,inactive: 73%
22,OC1CCNC2CCCCC12 (stereo not given),inactive: 83%
23,Cc1nc2ccccc2c(=O)n1-c1cccc(O)c1,inactive: 93%
24,CSc1ccc(CN2CCN(C(=O)COc3cccc(C)c3)CC2)cc1,inactive: 55%
25,Cc1cccnc1-n1c(C)nc2ccccc2c1=O,inactive: 98%
